According to paper PMC11011526, “Identification of Inhibitors of the Disease-Associated Protein Phosphatase Scp1 Using Antibody Mimetic Molecules” (International Journal of Molecular Sciences, 2024):
Results are given in words; binding and its absence hold for the method and conditions named. Some entries that bind do so weakly or less than the wild type.

T1: Scp1 (UniProt Q9GZU7)
T1 sequence: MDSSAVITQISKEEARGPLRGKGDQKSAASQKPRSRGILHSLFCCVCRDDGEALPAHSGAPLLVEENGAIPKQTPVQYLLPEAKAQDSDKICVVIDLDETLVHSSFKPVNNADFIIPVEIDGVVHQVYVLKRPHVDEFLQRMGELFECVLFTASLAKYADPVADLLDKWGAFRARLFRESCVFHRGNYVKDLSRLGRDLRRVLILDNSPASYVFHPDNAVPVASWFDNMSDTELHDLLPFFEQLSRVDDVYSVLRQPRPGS


Target: T1, Scp1
Test: solid-phase binding of peptide-BAP chimeras (BAP activity read with pNPP); Scp1 coated on wells; bacterial broth with peptide/BAP chimera, normalized to BAP activity, added; bound chimera measured with pNPP as substrate; only the target purified

Binder | binding
FVAGPDA [Ala mutant of Phe3 of the FG-1 sequence, peptide-BAP conjugate] | no binding
LFEPADR [FG-5 peptide-conjugated bacterial alkaline phosphatase (BAP)] | binds weakly
AVFGPDA [Ala mutant of Phe1 of the FG-1 sequence, peptide-BAP conjugate] | no binding
FVFGPDA [FG-1 peptide-conjugated bacterial alkaline phosphatase (BAP)] | binds

Other lines, results leading:

binding | Binder
no binding | FVFGADA [Ala mutant of Pro5 of the FG-1 sequence, peptide-BAP conjugate]
binds weakly | LLEPEDW [FG-2 peptide-conjugated bacterial alkaline phosphatase (BAP)]
no binding | FAFGPDA [Ala mutant of Val2 of the FG-1 sequence, peptide-BAP conjugate]
